Results from the supplement of paper PMC8728848.
The list shows a part of the results.

Legend:
Experiment in all cases: glycan array binding signal (z-score within array); higher = stronger binding
Details in all cases: glycan notation: IUPAC condensed, linker removed; mutation: E41G
[1] = target: Gal(b1-4)GlcNAc(b1-2)Man(a1-6)[GlcNAc(b1-2)Man(a1-3)]Man(b1-4)GlcNAc(b1-4)GlcNAc
Procedure, shortened: (§1)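 The Consortium for Functional Glycomics database supplied 3228 glycan arrays, of which those lacking an available protein sequence were dropped. The binding signal, a within-array Z-score, was averaged across arrays of the same protein sequence and across linkers. Negative scores can be read as non-binding.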

[2] = target: Gal(b1-4)GlcNAc(b1-2)Man(a1-6)[Man(a1-3)]Man(b1-4)GlcNAc(b1-4)GlcNAc
Procedure, shortened: as §1

[3] = target: Gal(b1-4)GlcNAc(b1-2)[Gal(b1-4)GlcNAc(b1-4)]Man(a1-3)[Gal(b1-4)GlcNAc(b1-2)Man(a1-6)]Man(b1-4)GlcNAc(b1-4)GlcNAc
Procedure, shortened: as §1

[4] = target: Gal(b1-4)GlcNAc(b1-2)[Gal(b1-4)GlcNAc(b1-4)]Man(a1-3)[Gal(b1-4)GlcNAc(b1-2)[Gal(b1-4)GlcNAc(b1-6)]Man(a1-6)]Man(b1-4)GlcNAc(b1-4)GlcNAc
Procedure, shortened: as §1

[5] = target: Gal(b1-4)GlcNAc(b1-2)[Gal(b1-4)GlcNAc(b1-4)]Man(a1-3)[GlcNAc(b1-4)][Gal(b1-4)GlcNAc(b1-2)Man(a1-6)]Man(b1-4)GlcNAc(b1-4)GlcNAc
Procedure, shortened: as §1

[6] = target: Gal(b1-4)GlcNAc(b1-2)[Gal(b1-4)GlcNAc(b1-4)]Man(a1-3)[GlcNAc(b1-4)][Gal(b1-4)GlcNAc(b1-2)[Gal(b1-4)GlcNAc(b1-6)]Man(a1-6)]Man(b1-4)GlcNAc(b1-4)GlcNAc
Procedure, shortened: as §1

[7] = target: Gal(b1-4)GlcNAc(b1-2)[Gal(b1-4)GlcNAc(b1-6)]Man(a1-6)[Gal(b1-4)GlcNAc(b1-2)Man(a1-3)]Man(b1-4)GlcNAc(b1-4)GlcNAc
Procedure, shortened: as §1

[8] = target: Gal(b1-4)GlcNAc(b1-2)[Gal(b1-4)GlcNAc(b1-6)]Man(a1-6)[Gal(b1-4)GlcNAc(b1-2)Man(a1-3)]Man(b1-4)GlcNAc(b1-4)[Fuc(a1-6)]GlcNAc
Procedure, shortened: as §1

[9] = target: Gal(b1-4)GlcNAc(b1-2)[Gal(b1-4)GlcNAc(b1-6)]Man(a1-6)[GlcNAc(b1-4)][Gal(b1-4)GlcNAc(b1-2)Man(a1-3)]Man(b1-4)GlcNAc(b1-4)GlcNAc
Procedure, shortened: as §1

[10] = target: Gal(b1-4)GlcNAc(b1-2)[Gal(b1-4)GlcNAc(b1-6)]Man(a1-6)[GlcNAc(b1-4)][Gal(b1-4)GlcNAc(b1-2)[Gal(b1-4)GlcNAc(b1-4)]Man(a1-3)]Man(b1-4)GlcNAc(b1-4)[Fuc(a1-6)]GlcNAc
Procedure, shortened: as §1

[11] = target: Gal(b1-4)GlcNAc(b1-3)Gal(b1-3)GalNAc
Procedure, shortened: as §1

[12] = target: Gal(b1-4)GlcNAc(b1-3)Gal(b1-3)GlcNAc
Procedure, shortened: as §1

[13] = target: Gal(b1-4)GlcNAc(b1-3)Gal(b1-4)Glc
Procedure, shortened: as §1

[14] = target: Gal(b1-4)GlcNAc(b1-3)Gal(b1-4)GlcNAc
Procedure, shortened: as §1

[15] = target: Gal(b1-4)GlcNAc(b1-3)Gal(b1-4)GlcNAc(b1-2)Man(a1-3)[Gal(b1-4)GlcNAc(b1-3)Gal(b1-4)GlcNAc(b1-2)Man(a1-6)]Man(b1-4)GlcNAc(b1-4)GlcNAc
Procedure, shortened: as §1

[16] = target: Gal(b1-4)GlcNAc(b1-3)Gal(b1-4)GlcNAc(b1-2)Man(a1-3)[Gal(b1-4)GlcNAc(b1-3)Gal(b1-4)GlcNAc(b1-2)Man(a1-6)]Man(b1-4)GlcNAc(b1-4)[Fuc(a1-6)]GlcNAc
Procedure, shortened: as §1

[17] = target: Gal(b1-4)GlcNAc(b1-3)Gal(b1-4)GlcNAc(b1-2)[Gal(b1-4)GlcNAc(b1-3)Gal(b1-4)GlcNAc(b1-6)]Man(a1-6)[Gal(b1-4)GlcNAc(b1-3)Gal(b1-4)GlcNAc(b1-2)Man(a1-3)]Man(b1-4)GlcNAc(b1-4)GlcNAc
Procedure, shortened: as §1

[18] = target: Gal(b1-4)GlcNAc(b1-3)Gal(b1-4)GlcNAc(b1-2)[Gal(b1-4)GlcNAc(b1-3)Gal(b1-4)GlcNAc(b1-6)]Man(a1-6)[Gal(b1-4)GlcNAc(b1-3)Gal(b1-4)GlcNAc(b1-2)Man(a1-3)]Man(b1-4)GlcNAc(b1-4)[Fuc(a1-6)]GlcNAc
Procedure, shortened: as §1

[19] = target: Gal(b1-4)GlcNAc(b1-3)Gal(b1-4)GlcNAc(b1-3)Gal(b1-4)GlcNAc
Procedure, shortened: as §1

[20] = target: Gal(b1-4)GlcNAc(b1-3)Gal(b1-4)GlcNAc(b1-3)Gal(b1-4)GlcNAc(b1-2)Man(a1-3)[Gal(b1-4)GlcNAc(b1-3)Gal(b1-4)GlcNAc(b1-3)Gal(b1-4)GlcNAc(b1-2)Man(a1-6)]Man(b1-4)GlcNAc(b1-4)GlcNAc
Procedure, shortened: as §1

[21] = target: Gal(b1-4)GlcNAc(b1-3)Gal(b1-4)GlcNAc(b1-3)Gal(b1-4)GlcNAc(b1-2)Man(a1-3)[Gal(b1-4)GlcNAc(b1-3)Gal(b1-4)GlcNAc(b1-3)Gal(b1-4)GlcNAc(b1-2)Man(a1-6)]Man(b1-4)GlcNAc(b1-4)[Fuc(a1-6)]GlcNAc
Procedure, shortened: as §1

[22] = target: Gal(b1-4)GlcNAc(b1-3)Gal(b1-4)GlcNAc(b1-3)Gal(b1-4)GlcNAc(b1-2)[Gal(b1-4)GlcNAc(b1-3)Gal(b1-4)GlcNAc(b1-3)Gal(b1-4)GlcNAc(b1-6)]Man(a1-6)[Gal(b1-4)GlcNAc(b1-3)Gal(b1-4)GlcNAc(b1-3)Gal(b1-4)GlcNAc(b1-2)Man(a1-3)]Man(b1-4)GlcNAc(b1-4)[Fuc(a1-6)]GlcNAc
Procedure, shortened: as §1

B1: CVN-E41G (protein)
chain: MHHHHHHENLYFQSGNFSQACYNSAIQGSVLTSTCIRTNGGYNTSSIDLNSVIGNVDGSLKWQGSNFIETCRNTQLAGSSELAAECKTRAQQFVSTKINLDDHIAAIDGTLKYE
- glycan array binding signal (z-score) [1]: -0.149
- glycan array binding signal (z-score) [2]: -0.149
- glycan array binding signal (z-score) [3]: -0.165
- glycan array binding signal (z-score) [4]: 0.24
- glycan array binding signal (z-score) [5]: -0.154
- glycan array binding signal (z-score) [6]: -0.156
- glycan array binding signal (z-score) [7]: -0.152
- glycan array binding signal (z-score) [8]: -0.163
- glycan array binding signal (z-score) [9]: -0.142
- glycan array binding signal (z-score) [10]: -0.143
- glycan array binding signal (z-score) [11]: -0.179
- glycan array binding signal (z-score) [12]: -0.157
- glycan array binding signal (z-score) [13]: -0.143
- glycan array binding signal (z-score) [14]: -0.143
- glycan array binding signal (z-score) [15]: -0.028
- glycan array binding signal (z-score) [16]: -0.111
- glycan array binding signal (z-score) [17]: 0.062
- glycan array binding signal (z-score) [18]: -0.115
- glycan array binding signal (z-score) [19]: -0.177
- glycan array binding signal (z-score) [20]: -0.115
- glycan array binding signal (z-score) [21]: -0.111
- glycan array binding signal (z-score) [22]: -0.129
